The text below walks through data of publication PMC12136788.

This is one part of the list.

T1: UNK ZnF1-3 (human, UniProt Q9C0B0 31-174)
T1 sequence: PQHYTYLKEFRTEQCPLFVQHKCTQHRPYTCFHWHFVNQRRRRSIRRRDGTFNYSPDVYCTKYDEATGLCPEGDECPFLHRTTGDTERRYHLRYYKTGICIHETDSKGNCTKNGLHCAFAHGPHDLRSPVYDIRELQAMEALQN

B1: chr5:159492046:159492047:+_ENSG00000113312_ENST00000231238|hu_mus|FALSE|FALSE (ssRNA)
RNA: GGGAGUUCUACAGUCCGACGAUCCCCAGUCAGCCUUUAAGACUGUUAUUUCUGUUAUCUAUUAUUAUUCGGAUUUUGAACAAAAUUGAUGGAGUAGGAGCCAGUAGAAGAAUCCUGCUUGAUCUGGAAAUUUUCUGUGGAGAGCAACAGAGGAUUGAGCAUCA
B2: chr7:54825262:54825263:-_ENSG00000132432_ENST00000352861|hu_hu|hu_hu_hu_mus_False|8_48 (ssRNA)
RNA: GGGAGUUCUACAGUCCGACGAUCCUGCCGGCUGGGCUCCACAAACUGCAUUACCUGAUCCAUGUUUGUUGGAUGGCGGAUUGAGAGUGCCAGGGACCGUAGCUCAGGAGAGAACCGAGCCCAACGGCACCGGAACCUGGCAACCAACAGAGGAUUGAGCAUCA
B3: chr4:39739082:39739083:+_ENSG00000078140_ENST00000261427|perfect_dup|motif|central (ssRNA)
RNA: GGGAGUUCUACAGUCCGACGAUCUAUUUUUAUCUCUAGUUGAUAUCUUCCACCUUCAUACGGUGUGUCUGGAGGUCCUGCGGUUUCUCCUCUUAAUUCUGUAAAAUUCUCAUCUACAAGAUCUACUUUAAUUUGAUUUUUGCUCAACAGAGGAUUGAGCAUCA
B4: 98571650_98572089_1718_CDS_ENSMUSG00000017210_ENSMUST00000017354|mouse|control|control (ssRNA)
RNA: GGGAGUUCUACAGUCCGACGAUCAGGGCGGAAGCAGGGAUGGUCAGGGUUCAAAAUCUUGCCCUCCUCGGGCAUGCAGGUCUGCAUCCAAGUCUCAAAGAAGGGGACUUCUUCUCCUGAGCUCGACUCCGAGAGGAUCACCUCCAACAGAGGAUUGAGCAUCA
B5: chr9:101992667:101992668:+_ENSG00000106803_ENST00000223641|hu_mus|FALSE|FALSE (ssRNA)
RNA: GGGAGUUCUACAGUCCGACGAUCAGAUGGAUGUAGCCCAAUCUAUGAUCGCGUGUACUUGCCCCAAAUGUGCAGCAUAAAUACAGCAGCGAUGAACAGAAGACUCAUCACCAGCACUGGGACAGGGCCCACUUUGAGCCCUGGCAACAGAGGAUUGAGCAUCA
B6: 53113633_53113753_266_3pUTR_ENSMUSG00000020361_ENSMUST00000020630|mouse|control|control (ssRNA)
RNA: GGGAGUUCUACAGUCCGACGAUCCUCUGAAAGCCCAGGUCUAUGCCCACCACCGACAUGGCGCCGGCUACUGCUCCGGCUCGGGCCCAGGGCCGGCCGCCGACACUGCACACGGAACCCGGCGGGGUUGGCGCGUGGAAGAGGCAACAGAGGAUUGAGCAUCA
B7: chr1:225611761:225611762:-_ENSG00000143815_ENST00000272163|hu_mus|hu_hu_hu_mus_True|28_28 (ssRNA)
RNA: GGGAGUUCUACAGUCCGACGAUCCCAGGCCAUCGGCCUCUGACCACUUCACCCUCAACAAACUUCCUACUUGGCAUUUUCUAAAAUUAGUCUGGCCGCGCUCCGGCCGGUGACACGGCCACUCCAGGACAGUCACCAGCAGCCCAACAGAGGAUUGAGCAUCA
B8: chr7:112906983:112906984:-_ENSMUSG00000036862_ENSMUST00000078482|mus_hu|motif|central (ssRNA)
RNA: GGGAGUUCUACAGUCCGACGAUCGGGGGAGACAAUAGGAGUCCCUGGGGGCGCAUUCUCACGAAUCGUAGCCUCACUGCGGGCCCGGGGAAAGCGGGGUCCACGCUCAGCUUCCCCCUGCAGUCCAACAAUGAUCACACCAGUCAACAGAGGAUUGAGCAUCA
B9: chr2:17897474:17897475:-_ENSG00000163029_ENST00000351948|hu_mus|motif|central (ssRNA)
RNA: GGGAGUUCUACAGUCCGACGAUCUAUUGCUUCCAGAAGAGCUGGAACAUGAGGACCAAAUCUUUUUAGUCGAUCAGUUUUACGGUCUUUCAGUUCUUUCAAUUGUCUCUGAUUAUAGUUGAGUGCAUGUCUCACUUCUAUAUCCAACAGAGGAUUGAGCAUCA
B10: chr4:25749455:25749456:-_ENSG00000091490_ENST00000264868|hu_hu|hu_hu_hu_mus_False|98_98 (ssRNA)
RNA: GGGAGUUCUACAGUCCGACGAUCGCACUAUGACCUCCCCUAGAAAACACAGGGGGAAAAAAUGUAAACCAAUGUACAAUGUUAUCGCCUUCCCUGUGUGUGGAGUGUUUGUCUCAAGGCUCCUUCUAGCUGCUGGAUUUGGGACAACAGAGGAUUGAGCAUCA
B11: chr3:179052105:179052106:+_ENSG00000121864_ENST00000484866|hu_hu|motif|central (ssRNA)
RNA: GGGAGUUCUACAGUCCGACGAUCUCCAAACCUCAUCAAGCAGUCACUACAUUUAUGAGGCAAGUCAGCUGAAUGCUUGAAAUCGGGAUGAAUUUUAAGAUCUUCAAUUUGUCCUGUUGAAUAUUCACAAUAUUGACAUAAAUACAACAGAGGAUUGAGCAUCA
B12: 114262867_114262987_1014_CDS_ENSG00000145362_ENST00000514960|human|control|control (ssRNA)
RNA: GGGAGUUCUACAGUCCGACGAUCCACCUCAACCUGGCUUCAAUGGGGUCAUGUGAUUUGGCAAACACUACAAAUUUGGCCAUAUAAGGUACGCAGAUAAUUUCUCUGUAUACUUGUGAUGCAAAAGUAACGGAUUCCUGGAUCCAACAGAGGAUUGAGCAUCA
B13: 150229297_150239220_176_5pUTR_ENSMUSG00000028967_ENSMUST00000030811|mouse|control|control (ssRNA)
RNA: GGGAGUUCUACAGUCCGACGAUCCCCAGGUGUUUUUAAGUCAACCAGUAGCUUUCAUUCCCCCAAGGGAGCGGGACCCCGCGGCGCCCUCCCGCGCAUGUCCGUCCCGGCUGGCUCAGCGCCGCGGGCUUAGGGGCCCGAGCACAACAGAGGAUUGAGCAUCA
B14: chr17:60770872:60770873:+_ENSG00000011028_ENST00000303375|hu_hu|hu_hu_hu_mus_True|98_108 (ssRNA)
RNA: GGGAGUUCUACAGUCCGACGAUCUCUCUUUUCUUUUUUCCUUUUUUACAAACAAUAAUAGCACAUUUCGAGAAUCAAGAACUACAAUAGAGGGUCCGCUUUGAGUUUUUGUUCACAUCGUCCUGCACUGGGACACGGGGACUGCAACAGAGGAUUGAGCAUCA
B15: chr17:64801638:64801639:+_ENSG00000154229_ENST00000413366|hu_mus|hu_hu_hu_mus_False|8_78 (ssRNA)
RNA: GGGAGUUCUACAGUCCGACGAUCUAUAUAUAUAUAUACAUAUGUACACAUAUAUAGUAAGAGCCUAGUUAAACGUGUAAAGUAGCCAUUCAUUUUUAAAAUUACAUCUACAUUAAAAAAUUAAUAUAUCUGAUACAGUGCCAGCAACAGAGGAUUGAGCAUCA
B16: 111714083_111714203_6032_ncRNA_ENSMUSG00000033209_ENSMUST00000156290|mouse|control|control (ssRNA)
RNA: GGGAGUUCUACAGUCCGACGAUCUCAUGGAGGAGGCGAUUGAGCUGAGACUGUACACAGAAAUGGCGUCGGAGGCAAUGCUGUCUGCGCCCGUGGGCGAGAAAGGAGGGUGCUGGUAGCCCAAGGGCAGAGCGUUGGACACAGCAACAGAGGAUUGAGCAUCA
B17: 6085032_6085152_820_3pUTR_ENSMUSG00000034345_ENSMUST00000039487|mouse|control|control (ssRNA)
RNA: GGGAGUUCUACAGUCCGACGAUCAUACCCAGGGUAAAAGGAUAAUUUAACCAAACUCCAUUAUUUUUCUGGUGUAUUUAAUUGGUUCUAAGAAGGUAGGAAAAACAUUUAUGAUUUCAUUUUCUUAUAUUUCCGUAUUUGUGUCAACAGAGGAUUGAGCAUCA
B18: chr3:9412954:9412955:+_ENSG00000134077_ENST00000452837|hu_mus|hu_hu_hu_mus_False|38_38 (ssRNA)
RNA: GGGAGUUCUACAGUCCGACGAUCGGUUGAUAUCUCUUCUUUGAUGGCUGGAUUUUCAUAAUAGUCCAAGAUAUGUGAAUCUGAAGUGCUGCUGGCAAACUCUUUUUUACCAUCUUUCUCAUCUGCUUUGUCUCCUUGUCCACACAACAGAGGAUUGAGCAUCA
B19: chr1:171751117:171751118:+_ENSG00000010165_ENST00000361735|hu_mus|FALSE|FALSE (ssRNA)
RNA: GGGAGUUCUACAGUCCGACGAUCCUUGGAGCUUUUAGGUAGGAGAUUCAUGUUCCCACCGUGAGCGGCGUCUUCGACACUGCUCCUGGUGACAGAUCACCCCGGGAAGCACCGGGAGGCAGCAGCGGCGGGAAUCUUAGCCACCAACAGAGGAUUGAGCAUCA
B20: chr1:151374018:151374019:+_ENSG00000159377_ENST00000290541|hu_hu|FALSE|FALSE (ssRNA)
RNA: GGGAGUUCUACAGUCCGACGAUCAAAGCCACUGAUCAUGUGGGCAAUAUCCCAGUUGGUCUCUGUAGACAAUGGUCCCUCUAUUUCAACACCUUUUUCGGUGACAGUGGCGAUUUGAAACCGGUUGUAAGAACGGGCAUCUCGCAACAGAGGAUUGAGCAUCA
B21: chr5:128440902:128440903:+_ENSG00000066583_ENST00000173527|hu_mus|hu_hu_hu_mus_True|38_108 (ssRNA)
RNA: GGGAGUUCUACAGUCCGACGAUCUUGAACCGUGCUCCCAAGUCCUUUGGGGUAUUGUUCCGUUAUGAUAACUGGAAUCCCUAAGAUCCGAGCUCCUUGCAACAAUCUCUGUCCCACACUAAUGAUGUCCCCAAAGUAUUUGAUCAACAGAGGAUUGAGCAUCA
B22: chr7:54823571:54823572:-_ENSG00000132432_ENST00000352861|hu_mus|hu_hu_hu_mus_False|48_48 (ssRNA)
RNA: GGGAGUUCUACAGUCCGACGAUCUCCCAUGAUAGCAAAUCCUAUAGCUGUAGCCAUGGCAAUCUUCUGGAAUUCUUUUCUGUCGGGUUUAGUGCAUCUUUUAACCAGCCGAAUUGAGUCCUUUACAAACUGCCGGCUGGGCUCCAACAGAGGAUUGAGCAUCA

In the assay the target is T1, UNK ZnF1-3. Description: nsRBNS (natural sequence RNA bind-n-seq); RBNS binding buffer (assumed for nsRBNS): 25 mM Tris pH 7.5, 150 mM KCl, 3 mM MgCl2, 0.01% Triton X-100, 500 ug/ml BSA, 20 U/ml SUPERase-In, 4 C; UNK is unkempt and MSI1 is Musashi-1; names of the RNAs are library labels; protein concentration not given here; high values mean tight binding.
B1 showed a binding signal of 1.38 enrichment R. B2 showed a binding signal of 1.28 enrichment R. To B3 belongs 0.313 enrichment R; to B4, 1.14 enrichment R; to B5, 1.43 enrichment R. To B6 belongs 0.801 enrichment R; to B7, 1.09 enrichment R; to B8, 0.563 enrichment R. For B9, the binding signal was determined as 0.599 enrichment R. To B10 belongs 1.23 enrichment R. The molecule B11 showed a binding signal of 1.12 enrichment R.

Take B12: the binding signal stood at 1.12 enrichment R.

Molecule B13 came in with a binding signal of 0.794 enrichment R. To B14 belongs 0.86 enrichment R; to B15, 1.84 enrichment R. To B16 belongs 2.21 enrichment R. The molecule B17 registered a binding signal of 1.05 enrichment R.

Molecule B18 gave a binding signal of 0.342 enrichment R. To B19 belongs 1.02 enrichment R; to B20, 0.94 enrichment R; to B21, 0.712 enrichment R. In turn, B22 displayed a binding signal of 0.708 enrichment R.
